Laboratory results reported in PubChem BioAssay AID1346428 (National Center for Advancing Translational Sciences (NCATS), 2018).
The whole screen tested about 48,000 compounds, of which about 1,200 (2.5%) were called active. Not shown: some 2% with an inconclusive outcome.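 Rule for the calls: active = activation of at least 60% and not above a set upper limit (about 1 call in 100 departs from these limits); inconclusive = activation of 40% to 60%, or above that upper limit; inactive = activation under 40%.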 The list shows a part of the results.

These compounds were tested against Probable G-protein coupled receptor 32 (Homo sapiens) (UniProt O75388) (assay: qHTS for Agonists of Human Resolvin D1 Receptor DRV1). Details: CHO-K1 GPR32 beta-arrestin PathHunter luminescence, 90 min; at 76.9 µM; stronger effect = higher value; zero percent set by DMSO-only wells.
UniProt O75388, sequence (O75388 whole entry, looked up, the tested form may be a part): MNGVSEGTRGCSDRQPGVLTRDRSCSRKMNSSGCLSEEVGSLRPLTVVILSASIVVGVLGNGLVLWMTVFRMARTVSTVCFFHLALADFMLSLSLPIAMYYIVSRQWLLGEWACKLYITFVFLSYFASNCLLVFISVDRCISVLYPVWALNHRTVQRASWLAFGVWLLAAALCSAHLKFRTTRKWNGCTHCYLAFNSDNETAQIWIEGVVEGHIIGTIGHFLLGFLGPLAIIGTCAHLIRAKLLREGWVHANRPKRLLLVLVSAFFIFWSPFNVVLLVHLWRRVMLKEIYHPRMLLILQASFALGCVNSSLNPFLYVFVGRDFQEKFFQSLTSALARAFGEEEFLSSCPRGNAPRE
Summary of the method: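 Agonism was scored by beta-Gal fragment complementation (chemiluminescent read, 1 h detection at ambient temperature) reporting beta-arrestin binding to GPR32 in engineered CHO-K1 cells. Compound treatment lasted 90 min at 37 C, normalized to a DMSO basal control.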
Note: 0% is about no effect.

activation, inactive:
COc1ccc2cc(C(=O)NCc3ccc4c(c3)CCN4C(=O)c3ccc(F)cc3)[nH]c2c1 -14.6%, Fc1cccc(-c2nnn3c2nc(NCCc2ccccc2)c2ccccc23)c1 9.18%, O=C(CCn1c(=O)c2cccn2c2cccnc21)N1CCN(c2ccccc2F)CC1 -17.9%, COc1cc(C)cc2oc(=O)c(CC(=O)NCCc3ccc(Cl)cc3)c(C)c12 12.1%, CCn1c(=N)n(CCOc2ccc(Br)cc2)c2ccccc21 5.34%, CC(C)CNC(=O)N1[C@H](c2cccs2)[C@@H](C)C(=O)[C@@H](C)[C@@H]1c1cccs1 -21%, Cc1cccc(OCC(=O)Nc2ccc(-c3nc4ccccc4o3)cc2)c1C 32.6%, COc1ccc(C)cc1NS(=O)(=O)c1c(C(=O)N2CCCCCC2)c(C)n(C)c1C -17.9%, CC(C)OCCCNC(=O)Cn1ccc2cc(S(=O)(=O)N3CCCCCC3)ccc21 -4.42%, COc1ccc(CC(=O)NCCc2csc(-c3cccc(C)c3)n2)cc1 -9.09%, Cc1nc(-c2ccccc2)sc1-c1ccc(SCC(=O)NCc2ccc(Cl)cc2)nn1 -0.791%, CC(=O)c1cccc(NC(=O)CC(c2ccc(C)cc2)N2Cc3ccccc3C2=O)c1 (stereo unspecified) -0.931%, Cc1ccc(CCNS(=O)(=O)c2ccc3c(c2)CC(C)N3C(=O)C2CCC2)cc1 (stereo unspecified) 32.4%, Cc1ccc(-n2c(=O)[nH]c3cc(C(=O)NCc4ccccc4)ccc3c2=O)cc1 -1.6%, Cc1oc(-c2ccccc2Cl)nc1Cn1c(SCc2cccc(F)c2)nc2cccnc21 -25.8%, CN(Cc1ccccc1)c1ccc(-c2nc(-c3ccccn3)no2)cc1[N+](=O)[O-] 29.8%, COc1cccc(N2CCN(C(=O)c3cc4cc5cc(C)ccc5nc4s3)CC2)c1 -11.8%, COc1ccc(-c2nc(CSCC(=O)NCCc3ccccc3)c(C)o2)cc1 -15.3%, CCc1ccc(-n2c(SCc3ccccc3Cl)nc3[nH]ncc3c2=O)cc1 -5.11%, COc1cc(OC)c(NC(=O)CCc2c(C)nc3ncnn3c2C)cc1Cl 2.62%, CCn1c(CN2CCC(C)CC2)nc2cc(NC(=O)COc3ccc(Cl)c(C)c3)ccc21 26.8%, CCC(=O)N1c2ccccc2CC1C(=O)NCc1ccccc1Cl (stereo unspecified) -6.83%, Cc1cccc(NC(=O)CCn2cnnn2)c1C -3.26%, Cc1ccc(CNC(=O)c2ccc(Cn3c(=O)c4ccccc4n(CC(=O)Nc4ccc(C)cc4)c3=O)cc2)cc1 -28.7%, Cc1cccc(NC(=O)Cn2cc(C(=O)c3ccco3)c3ccccc32)c1 -3.64%, COc1ccc(Cn2cc(S(=O)(=O)c3ccc(Cl)cc3)c(=O)c3cc4c(cc32)OCO4)cc1 5.35%, O=C(NC1(C(F)(F)F)C(=O)Nc2c1c(=O)[nH]c(=O)n2-c1ccc(Cl)cc1)c1ccccc1F (stereo unspecified) -1.28%, Cc1ccccc1OCCn1c(-c2ccc(Cl)cc2)nc2ccccc2c1=O 2.05%, C=CC(C)=C[C@@]1(C)SC(=O)C(C)=C1O -13.6%, O=C(OCc1cc(=O)n2nc(C3CCCCC3)sc2n1)c1ccc(F)cc1 23.6%, CCOc1ccc(NC(=O)CC2C(=O)N(c3ccc(Cl)cc3)C(=O)N2Cc2cccs2)cc1 (stereo unspecified) -20%, COc1cccc(NC(=O)c2ccc(-c3nc(COc4ccccc4)c(C)o3)cc2)c1 -10.6%, CCc1ccccc1Nc1nn2c(=O)c3ccc(C(=O)NCCCOC(C)C)cc3nc2s1 -8.23%, CCCCN(CC)C(=O)CSc1c2c(nc3ccc(Cl)cc13)CCCC2 -12.4%, O=C(Nc1cccc(Cl)c1)c1ccc2c(c1)CCN2S(=O)(=O)c1ccccc1 -2.8%, COc1ccc(-c2noc(-c3cccnc3N3CCN(c4ccc(OC)cc4)CC3)n2)cc1 -10.6%, COC(=O)c1c(NC(=O)/C(C#N)=C/c2ccccc2)sc2c1CCC2 3.76%, CCOc1ccc(NC(=O)c2sc3nc4c(c(-c5ccc(OC)cc5)c3c2N)C(=O)CC(C)(C)C4)cc1 -10.7%, CCOc1ccc(-n2cc(-c3ccccc3)c3c(N4CCN(c5ccccc5OC)CC4)ncnc32)cc1 -17.9%, COc1ccccc1Nc1cc(C(=O)NC2CCC(C)CC2)c2ccccc2n1 (stereo unspecified) -4.68%, CCOC(=O)c1c(C)[nH]c(C)c1S(=O)(=O)N1CCCC(C(=O)NCc2ccc(Cl)cc2)C1 (stereo unspecified) 7.23%, CCOCCCNC(=O)CN1C(=O)COc2ccc(S(=O)(=O)N3CCCC3)cc21 -2.21%, Cc1ccc(CNC(=O)c2c[nH]n3c(=O)c(Cc4ccc(Cl)cc4)c(C)nc23)cc1 5.28%, CC(=O)c1ccc(NS(=O)(=O)c2ccc3[nH]c4c(c3c2)CCCC4)cc1 19.6%, Cn1c(=O)oc2cc(S(=O)(=O)N3CCCC(C(=O)NCCc4ccccc4)C3)ccc21 (stereo unspecified) -5.74%, Cc1ccccc1C(=O)Nc1c(C)nc2ccccn2c1=O -4.68%, Cc1c(C)c2c(c(C)c1OC(=O)CCC(=O)OCCO)CC[C@@](C)(CCC[C@H](C)CCC[C@H](C)CCCC(C)C)O2 0.0016%, CCc1ccc(S(=O)(=O)c2cn(Cc3ccccc3F)c3cc(OC)c(OC)cc3c2=O)cc1 -20.2%, COc1ccc(NC(=O)CSc2nnc(NC(=O)NC3CCCCC3)s2)cc1OC -2.41%, CCOc1ccc(C2c3[nH]c4ccccc4c3CCN2C(=O)CSCc2ccc(F)cc2)cc1 (stereo unspecified) -33.6%, Cc1cccc(CNC(=O)c2ccc3nc(Cc4ccccc4)oc3c2)c1 -25.3%, O=C(NCCc1ccccc1)c1nn(-c2ccc(F)cc2)nc1CO -6.41%, Cc1ccc(CCNC(=O)c2c3c(nc4ccccc24)C(=O)N(C2CCCCC2)C3)cc1 -18.7%, Cc1cc(S(=O)(=O)NCC(c2ccco2)S(=O)(=O)c2cccs2)ccc1F (stereo unspecified) -9.48%, Cc1cccc(NC(=O)CS(=O)(=O)c2cccc3nsnc23)c1 8.94%, CCOc1ccc(NC(=O)CSc2nnc(-c3ccc(OCC)cc3)o2)cc1 -7.2%, Cc1ccc(NC(=O)Cn2c(=O)n(Cc3nc(-c4ccccc4)no3)c(=O)c3ccccc32)cc1C 1.43%, COC(=O)c1ccccc1NC(=O)CSc1nc(=O)cc(N)n1-c1ccccc1 -7.5%, CCOc1ccc(CCNC(=O)CCCc2nnc3n(CC)c(=O)c4sccc4n23)cc1OCC 1.74%, Cc1cccc(NC(=O)COc2ccc(-c3nn(C)c(=O)c4ccccc34)cc2)c1 46.6%, Cc1coc2cc3oc(=O)c(CC(=O)NCc4cccc(Cl)c4)c(C)c3cc12 25.4%, Cc1ccc(CNC(=O)c2c(-c3ccccc3Cl)noc2C)o1 -18.7%, COc1cc(OC)c(NC(=O)CN2CCCN(Cc3ccccc3C)S2(=O)=O)cc1Cl 27.7%, COc1ccc(CNC(=O)Nc2ccc3c(c2)N(C)C(=O)c2ccccc2S3)cc1OC -8.92%, CN1CC(=O)NC1=N 11.7%, COc1cc2ncc(C(=O)c3ccc(C)cc3)c(N3CCCCC3)c2cc1OC 11%, CC(CNC(=O)c1nnc(Cc2ccc(F)cc2)o1)c1ccccc1 (stereo unspecified) -21.8%, Cc1ccc(-n2nc3c(=O)n(CC(=O)NCCC(C)C)nc(C)c3c2C)cc1 2.58%, Nc1ncn([C@H]2C[C@H](O)[C@@H](CO)O2)c(=O)n1 -20.3%, NCCCCNCCCN 1.48%, COCCCNC(=O)Cn1c(=O)nc(-c2ccccc2)c2ccccc21 -9.51%, CCOc1ccc(CCNC(=O)c2cc(C)nc3c2c(C)nn3-c2cccc(F)c2)cc1 -17.1%, Cc1cccn2c(=O)c(C(=O)NCCc3ccccc3)cnc12 -11.2%, COc1ccc(Cn2cc(C(=O)c3ccc(C)c(C)c3)c(=O)c3ccccc32)cc1 7.06%, CCCCC12CN3CC(C)(CN(C1)C3c1ccc(O)c(OC)c1)C2=O (stereo unspecified) -20.2%, O=C(Cn1cc(S(=O)(=O)Cc2cccc(Cl)c2)c2ccccc21)Nc1ccccc1Cl -10.9%, COc1cccc(NC(=O)CSc2nccn2C2CCCC2)c1 -7.4%, C[C@@H](c1ncncc1F)C(O)(Cn1cncn1)c1ccc(F)cc1F (stereo partly specified) 7.22%, COc1ccc(CNCCC(c2ccc3c(c2)OCO3)c2ccccc2OC)cc1 (stereo unspecified) -14.1%, O=C(NC1CCCC1)c1ccc2c(c1)N(Cc1ccccc1)C(=O)c1ccccc1S2 -30.6%, CC1CCN(c2nc3ccc(C(=O)NCc4ccccc4Cl)cc3s2)CC1 16.2%, COc1ccc(C2=C(N3CCN(c4cccc(C)c4)C(C)C3)c3ccccc3C2=O)cc1 (stereo unspecified) -8.88%, Cc1ccc(F)cc1NC(=O)Cn1c(C)cc(C)c(C#N)c1=O -13.5%, COc1cccc(CNC(=O)Cc2c(C)c3ccc(OC)c(C)c3oc2=O)c1 30.8%, CC(C)(C(=O)c1cccnc1)c1cccnc1 5.81%, O=C(NCc1cccc(Br)c1)c1ccc(NC(=O)N2CCCCc3ccccc32)cc1 -11.1%
